{"source": "paper PMC4336329", "about": "(PLoS ONE, 2015)", "note": "The campaign covered roughly 310,000 compounds. About 14,000 (4.5%) showed an effect of 50% or more. Effects have a minus sign here. This is one part of the list.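 Note: peak tail current of the secondary pulse compared with the same well before compound.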", "data": [{"target": "human ether-à-go-go-related gene (hERG) potassium channel (human, UniProt Q12809)", "sequence (Q12809 whole entry, looked up)": "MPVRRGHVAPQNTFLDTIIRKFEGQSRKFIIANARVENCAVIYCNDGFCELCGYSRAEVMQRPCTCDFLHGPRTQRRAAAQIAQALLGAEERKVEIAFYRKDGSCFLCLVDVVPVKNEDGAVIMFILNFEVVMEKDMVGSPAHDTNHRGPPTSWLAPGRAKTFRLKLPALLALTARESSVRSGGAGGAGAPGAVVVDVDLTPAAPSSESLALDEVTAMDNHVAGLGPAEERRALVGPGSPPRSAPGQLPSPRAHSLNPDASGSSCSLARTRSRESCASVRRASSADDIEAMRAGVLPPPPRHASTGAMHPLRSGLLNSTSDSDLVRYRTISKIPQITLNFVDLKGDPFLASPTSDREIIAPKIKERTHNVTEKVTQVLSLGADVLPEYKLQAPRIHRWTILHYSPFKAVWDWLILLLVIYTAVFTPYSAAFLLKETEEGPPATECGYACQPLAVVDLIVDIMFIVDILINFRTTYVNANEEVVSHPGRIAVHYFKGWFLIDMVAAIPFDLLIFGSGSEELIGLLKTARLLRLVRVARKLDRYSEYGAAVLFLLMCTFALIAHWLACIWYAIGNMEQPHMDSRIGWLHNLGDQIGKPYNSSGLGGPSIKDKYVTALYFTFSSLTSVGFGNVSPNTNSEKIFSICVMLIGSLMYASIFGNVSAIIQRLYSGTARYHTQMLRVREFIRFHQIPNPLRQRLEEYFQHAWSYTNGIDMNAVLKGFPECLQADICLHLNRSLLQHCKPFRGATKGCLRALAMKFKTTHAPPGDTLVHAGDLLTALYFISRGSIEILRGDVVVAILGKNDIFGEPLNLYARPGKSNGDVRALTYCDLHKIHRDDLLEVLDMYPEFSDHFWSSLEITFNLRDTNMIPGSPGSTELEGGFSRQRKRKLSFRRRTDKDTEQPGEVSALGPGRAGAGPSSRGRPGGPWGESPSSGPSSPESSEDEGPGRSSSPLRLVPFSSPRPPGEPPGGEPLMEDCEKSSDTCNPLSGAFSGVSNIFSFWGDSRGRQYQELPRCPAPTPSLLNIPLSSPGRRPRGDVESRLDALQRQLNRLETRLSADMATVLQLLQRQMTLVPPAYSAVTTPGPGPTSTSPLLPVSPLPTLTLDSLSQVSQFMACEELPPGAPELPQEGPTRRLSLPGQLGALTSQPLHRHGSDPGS", "test": "primary screen, population patch clamp on CHO cells stably expressing hERG", "units": {"hERG current change (%, negative = inhibition) at 10uM": "%"}, "values": [{"smiles": "CCOC(=O)N1CCC(NC(=O)c2cc3c(=O)n(C)c4ccccc4c3n2C)CC1", "hERG current change (%, negative = inhibition) at 10uM": 5.27}, {"smiles": "CCOC(=O)N1CCN(Cc2nc3c(c(=O)[nH]c(=O)n3C)n2Cc2ccccc2C)CC1", "hERG current change (%, negative = inhibition) at 10uM": -19.9}, {"smiles": "COc1cccc(/C=C2\\SC(=S)N(CCCC(=O)Nc3ccc(C(=O)O)cc3)C2=O)c1", "hERG current change (%, negative = inhibition) at 10uM": 22.8}, {"smiles": "CCOc1ccc(S(=O)(=O)N2CCCC(C(=O)Nc3cccc(C)c3)C2)cc1", "note": "(centres unmarked)", "hERG current change (%, negative = inhibition) at 10uM": 25.1}, {"smiles": "CCOC(=O)[C@H]1[C@H]2COc3ccccc3[C@@H]2N2C(=O)c3cc(OC)ccc3NC(=O)[C@@]12C", "hERG current change (%, negative = inhibition) at 10uM": -15.4}, {"smiles": "COC(=O)Nc1ccc(S(=O)(=O)N2CCCC(C(=O)N3CCCCC3)C2)cc1", "note": "(centres unmarked)", "hERG current change (%, negative = inhibition) at 10uM": 2.2}, {"smiles": "O=C(OCC(=O)N1CCCC1)c1cccc(Br)c1", "hERG current change (%, negative = inhibition) at 10uM": 10.6}, {"smiles": "CCCC(=O)Nc1ccc(N2CCOCC2)cc1", "hERG current change (%, negative = inhibition) at 10uM": 9.8}, {"smiles": "COc1cccc(C(=O)N2CCC3(CC2)OCCO3)c1", "hERG current change (%, negative = inhibition) at 10uM": 20.3}, {"smiles": "C=CCC1(CC=C)CCCN1C(=O)Cn1nnnc1CN(C)C(C)C", "hERG current change (%, negative = inhibition) at 10uM": 20.3}, {"smiles": "CCn1c(=O)n(CC(=O)N2CC(C)CC(C)C2)c(=O)c2ccccc21", "note": "(centres unmarked)", "hERG current change (%, negative = inhibition) at 10uM": -7.45}, {"smiles": "Nc1nc(SCCO)[nH]c(=O)c1NC(=O)c1ccco1", "hERG current change (%, negative = inhibition) at 10uM": 24.2}, {"smiles": "CNc1ccc(/C=C(\\C#N)c2ccccn2)cc1[N+](=O)[O-]", "hERG current change (%, negative = inhibition) at 10uM": 23.3}, {"smiles": "Cc1ccc(NC(=O)Cn2cc(C=O)c3ccccc32)cc1C", "hERG current change (%, negative = inhibition) at 10uM": 11.4}, {"smiles": "COC(=O)C1CN(C(=O)COc2cc(C)cc(C)c2)c2ccccc2O1", "note": "(centres unmarked)", "hERG current change (%, negative = inhibition) at 10uM": 21.3}, {"smiles": "CCCCS(=O)(=O)c1sc2nc3c(cc2c1N)CCCC3", "hERG current change (%, negative = inhibition) at 10uM": 6.17}, {"smiles": "CC1(C)C[C@@H]1C(=O)N/C(=C\\CCCCSC[C@H](N)C(=O)O)C(=O)[O-].[Na+]", "hERG current change (%, negative = inhibition) at 10uM": 6.5}, {"smiles": "Cc1ccc(C(=O)c2ccc(C)cc2)cc1", "hERG current change (%, negative = inhibition) at 10uM": 20.3}, {"smiles": "COc1cc(OC)cc(C(=O)NNc2nc3cc4c(cc3s2)OCO4)c1", "hERG current change (%, negative = inhibition) at 10uM": -6.81}, {"smiles": "CCc1ccc(NC(=O)C2CCCN2C(=O)NC2CCCCC2)cc1", "note": "(centres unmarked)", "hERG current change (%, negative = inhibition) at 10uM": 17.5}, {"smiles": "O=C(CNC(=O)C1CCCCC1)NC1CCCCC1", "hERG current change (%, negative = inhibition) at 10uM": 14}, {"smiles": "O=[N+]([O-])c1cc(Cl)cc(/C=N/n2cnnc2)c1O", "hERG current change (%, negative = inhibition) at 10uM": 8.17}, {"smiles": "CCN(CC)CCCNc1nc2ccccc2c2nc(-c3ccncc3)nn12", "hERG current change (%, negative = inhibition) at 10uM": -56.6}, {"smiles": "CC(C)CCn1c(CN2CCN(c3cccc(Cl)c3)CC2)nc2c1c(=O)n(C)c(=O)n2C", "hERG current change (%, negative = inhibition) at 10uM": -5.6}, {"smiles": "COc1cccc(NC(=S)N2CCN(C/C=C/c3ccccc3)CC2)c1", "hERG current change (%, negative = inhibition) at 10uM": -44.7}, {"smiles": "Cc1ccc(S(=O)(=O)NCC(=O)N(c2ccccc2)C(C(=O)NCc2ccccc2)c2ccco2)cc1", "note": "(centres unmarked)", "hERG current change (%, negative = inhibition) at 10uM": -6.04}, {"smiles": "COc1ccc(NC(=O)Nc2nnc(-c3ccncc3)s2)cc1", "hERG current change (%, negative = inhibition) at 10uM": 51.5}, {"smiles": "COc1ccc(C(=O)NC(=S)NNC(=O)[C@H]2C[C@@H]2c2ccccc2)cc1OC", "hERG current change (%, negative = inhibition) at 10uM": 14}, {"smiles": "CC(C)(C)c1ccc(OCCC(=O)OCC(=O)NC(=O)NC2CCCC2)cc1", "hERG current change (%, negative = inhibition) at 10uM": 10.7}, {"smiles": "Cc1ccc(S(=O)(=O)N2CCOCC2)cc1C(=O)OCC(=O)NC1CCS(=O)(=O)C1", "note": "(centres unmarked)", "hERG current change (%, negative = inhibition) at 10uM": 9.67}, {"smiles": "CC(=O)Nc1ccc(OCC[n+]2cccc(C(N)=O)c2)cc1.[Br-]", "hERG current change (%, negative = inhibition) at 10uM": 20}, {"smiles": "COc1ccccc1OCCOCCOc1ccc(C)cc1Br", "hERG current change (%, negative = inhibition) at 10uM": 5.98}, {"smiles": "CCN(CC)c1ccc(C(=O)N2CCN(Cc3ccccc3)CC2)cc1", "hERG current change (%, negative = inhibition) at 10uM": -37.8}, {"smiles": "Cn1c(C(=O)O)c(S(=O)(=O)c2ccc(Cl)cc2)c2ccccc21", "hERG current change (%, negative = inhibition) at 10uM": 28.7}, {"smiles": "CCOC(=O)N1CCC(NC(=O)c2ccc(OC)c(CN3CC(=O)N4CCCC4C3=O)c2)CC1", "note": "(centres unmarked)", "hERG current change (%, negative = inhibition) at 10uM": 5.49}, {"smiles": "COC(=O)C1CCN(c2ccc([N+](=O)[O-])cc2[N+](=O)[O-])CC1", "hERG current change (%, negative = inhibition) at 10uM": -0.88}, {"smiles": "CC1=C(C(=O)OCc2cc(C)on2)N2C(=O)[C@@H](NC(=O)OCc3cc(C)on3)[C@H]2SC1", "hERG current change (%, negative = inhibition) at 10uM": -13.2}, {"smiles": "Cc1ccc(N(CC(=O)Nc2c(C)n(C)n(-c3ccccc3)c2=O)S(C)(=O)=O)c(C)c1", "hERG current change (%, negative = inhibition) at 10uM": 9.22}, {"smiles": "CC(C)c1ccc(CCNC(=O)c2ccc([N+](=O)[O-])cc2)cc1", "hERG current change (%, negative = inhibition) at 10uM": -4.12}, {"smiles": "Cc1ccc(S(=O)(=O)NCC(=O)N2CCN(c3ccccn3)CC2)cc1", "hERG current change (%, negative = inhibition) at 10uM": -14.6}, {"smiles": "CC1(C)NC(=O)N(CCCCOc2ccc(Br)cc2Cl)C1=O", "hERG current change (%, negative = inhibition) at 10uM": -25.4}, {"smiles": "CC1CCN(C(=O)COC(=O)CCc2c[nH]c3ccccc23)CC1", "hERG current change (%, negative = inhibition) at 10uM": 9.1}, {"smiles": "CCC1CCCCN1C(=S)NC(=O)c1cc(Br)ccc1Cl", "note": "(centres unmarked)", "hERG current change (%, negative = inhibition) at 10uM": -6.81}, {"smiles": "CC(=C/c1ccccc1)/C=N/n1cnnc1", "hERG current change (%, negative = inhibition) at 10uM": -33.7}, {"smiles": "CC(=O)Nc1cccc(NC(=O)CSc2ccc(-c3ccccn3)nn2)c1", "hERG current change (%, negative = inhibition) at 10uM": 14.1}, {"smiles": "O=c1c2ccccc2oc2cc(-c3ccc(CN4CCOCC4)cc3)ccc12", "hERG current change (%, negative = inhibition) at 10uM": 2.09}, {"smiles": "COc1ccc(Cl)cc1NC(=O)CCc1ccccc1", "hERG current change (%, negative = inhibition) at 10uM": -5.7}, {"smiles": "CC(C)(C)c1ccc(C2/C(=C(\\O)c3ccc4c(c3)OCCO4)C(=O)C(=O)N2CCCN2CCOCC2)cc1", "note": "(centres unmarked)", "hERG current change (%, negative = inhibition) at 10uM": 9}, {"smiles": "CCC(=O)N(CCC1(c2ccccc2OC)CCOC(C(C)C)C1)Cc1ccco1", "note": "(centres unmarked)", "hERG current change (%, negative = inhibition) at 10uM": -24.4}, {"smiles": "COC(=O)c1cc(OC)c(OC)cc1NC(=O)c1cc(OC)cc(OC)c1", "hERG current change (%, negative = inhibition) at 10uM": 21.4}, {"smiles": "Cc1ccc(C(=O)Nc2ncc(Cc3ccc(SC(F)F)cc3)s2)cc1", "hERG current change (%, negative = inhibition) at 10uM": -11.3}, {"smiles": "CCCOc1ccc(N2CC(C(=O)Nc3ccc4c(c3)OCO4)CC2=O)cc1", "note": "(centres unmarked)", "hERG current change (%, negative = inhibition) at 10uM": 10.9}, {"smiles": "Cc1ccc(CSc2nnc(NC(=O)Cn3cnc4ccccc4c3=O)s2)cc1", "hERG current change (%, negative = inhibition) at 10uM": 7.82}, {"smiles": "FC(F)(F)c1cnc2c(c1)Nc1ccccc1S2", "hERG current change (%, negative = inhibition) at 10uM": -8.83}, {"smiles": "NC(=O)c1ccsc1N", "hERG current change (%, negative = inhibition) at 10uM": 16.3}, {"smiles": "CC1CCCCN1CCNC(=O)CN1C(=O)COc2ccccc21", "note": "(centres unmarked)", "hERG current change (%, negative = inhibition) at 10uM": -1.86}]}]}
